Among all 150,000 compounds or so, about 540 (0.36%) showed an effect of 50% or more. This is one part of the list.
These molecules were tested on Plasmodium falciparum (assay: Primary screen in NF54 nanoGlo assay, in single point, at 2uM, 72h; a lower Z score goes with more inhibition). Settings: timepoint 72 hour.
Type: functional, Erythrocyte

SMILES | % Inhibition [%] | Z score
NC(=O)CCNC(=O)[C@@H]1Cc2cc(Br)ccc2O1 | -22 | 2.19
Cc1snnc1C(=O)N1CCN(Cc2ccccc2)CC1 | -8 | 1.29
COc1cccc(OCc2nc(C(=O)N3CCCCO3)co2)c1 | -10 | 1.81
CC(C)(C)c1noc(-c2ccc(C(N)=O)[nH]2)n1 | -6 | 0.55
c1ccc(-c2ncn3c2-c2ccccc2C3)cc1 | 6 | -0.8
CNC(=O)c1cc(C)ccc1NCc1nnc2n1CCOC2 | -9 | 1.74
Cc1cc(C(=O)N[C@H]2CCN(c3nc4ccccc4o3)C[C@@H]2O)no1 | -6 | 0.88
CCCc1cc(N2CCN(c3cccc(Cl)c3)CC2)n2cnnc2n1 | -2 | 0.2
O=C(NCc1ccccn1)c1cccc(S(=O)(=O)N2CCCCC2)c1 | -11 | 1.69
CCCC(CNC(=O)C1(C)CC1(F)F)C(=O)O (stereo not given) | 6 | -1.07
CCC(NC(=O)C1CC(O)CN1)c1nc(C)cs1 (stereo not given) | -4 | 0.44
CCN(CC)Cc1ncnn1-c1ccc(F)c(F)c1 | 5 | -0.82
CCOC1CC(NC(=O)C2COC(C)C2)C1Oc1ccccc1 (stereo not given) | -1 | 0.07
C[C@@](CO)(CNCc1cnc(N2CCOCC2)nc1)c1ccccc1 | -10 | 1.27
CN(Cc1ccc(-n2ccnc2)cc1)Cc1n[nH]c2c1CCC2 | 2 | -0.41
Cc1ccccc1NC(=O)c1cc(S(=O)(=O)N2CCCCCC2)cn1C | -13 | 1.81
CS(=O)(=O)c1ccc(CN2CC[C@H](c3nc4ccccc4[nH]3)C2)cc1 | -10 | 1.29
COCCN(C(=O)c1cnn(-c2ncc3c(n2)-c2ccccc2CCC3)c1C)C(C)C | -6 | 1.22
COc1ccccc1-n1c(=O)n(C2CC2)c(=O)c2c1ncn2CC1CC1 | -4 | 0.57
Cn1cccc1C(=O)NC1CCC(F)C1 (stereo not given) | 10 | -1.22
COc1ccc([C@@H]2C[C@H](NC(C)=O)C[C@H](CC(C)C)O2)c(OC)c1OC | 1 | -0.17
O=C(NCCc1ccccc1)N1C[C@@H]2CCCN2c2ccccc21 | 0 | -0.01
CCN(CC)[C@@H](C(=O)NCC(=O)NC(C)(C)C)c1cc(Cl)cc(Cl)c1 | -20 | 3.11
CC1(C)C[C@@H]2C[C@@](C)(CN2C(=O)c2coc(CN3CCN(Cc4ccccc4)CC3)n2)C1 | -9 | 1.58
Cc1nc(C)n(CC2CCCCN2C2CC(C)OC2=O)n1 (stereo not given) | -13 | 1.51
CCOC1CCCN(C(=O)NCC2CCCC(C)C2)C1 (stereo not given) | -18 | 2.46
CCn1nnc(C)c1CN1CCC(=O)N(C)c2cc(F)ccc21 | 2 | -0.34
CC(=O)N1CCCN(C(=O)c2n[nH]c(=O)c3ccccc23)CC1 | -7 | 1.33

SMILES | % Inhibition [%] | Z score
CS(=O)(=O)N[C@@H](c1ccsc1)c1cccs1 | -9 | 1.59
O=C(O)[C@H]1CCCCN1C(=O)CCc1cc(Cl)cs1 | 0 | 0.02
O=C(NC1CCCC1)C1CCN(c2ccc(-c3cccs3)nn2)CC1 | -2 | 0.47
COc1ccc([C@@H]2CCCN2C(=O)CCC(=O)c2cc(C)ccc2C)cc1OC | 18 | -2.34
C#CCCCCC(=O)Nc1n[nH]c(OC)n1 | -7 | 1.07
O=C1C[C@@H](C(=O)Nc2ccccc2)NC(N2CCCCC2)=N1 | -5 | 0.85
CN(C)S(=O)(=O)N1CCC[C@H](CNC(=O)c2ccco2)C1 | -2 | 0.42
COc1cc(Cl)ccc1C(=O)N(C)Cc1c[nH]nc1C | -17 | 2.12
CC1CCN(S(=O)(=O)c2cccn(CC(=O)Nc3ccc(Cl)cc3F)c2=O)CC1 | -16 | 1.83
CCOC1CC(N(C)C(=O)NCc2ccc3c(c2)COC3)C12CCC2 (stereo not given) | 5 | -0.66
CCOc1ccc(NC(=O)CC2(CC3=Nc4ccccc4S(=O)(=O)N3)CCCC2)cc1 | -6 | 0.74
Cc1c(NC(C)C(C)C)cccc1C(=O)N1CCC[C@H]1C(N)=O (stereo not given in full) | -4 | 0.8
CCCn1c(C)nn(-c2cc(N(S(C)(=O)=O)S(C)(=O)=O)c(Cl)cc2Cl)c1=O | 2 | -0.35
COCCc1ccnc(NC(=O)[C@H]2CCN(C)[C@@H](C)C2)c1 | -1 | 0.12
O=C(NC[C@]1(O)CCCNC1)c1cccc(-c2nccc3ccccc23)c1 | -10 | 1.2
C[C@H]1CS(=O)(=O)N(c2ccc(C(=O)Nc3ccc(C(C)(C)C)cc3)c(Cl)c2)C1=O | -8 | 1.04
CCC(C(=O)N1C2CCC1CC(n1cccn1)C2)c1ccccc1 (stereo not given) | -12 | 1.56
CCCc1nc(C(=O)N(Cc2ccncc2)C[C@@H]2CCC(=O)N2)cs1 | 10 | -1.89
CCc1nncn1[C@H]1CCN(S(=O)(=O)c2c(C)nn(C)c2C)C1 | -9 | 1.57
Cc1noc(C)c1-c1cc(-c2ccc(Cl)cc2)nc(N2CC[C@H](N)C2)n1 | -3 | 0.63
COc1ccccc1C(=O)Nc1cc(-c2nccn2C)nn1C | -10 | 1.48
Cc1nc(-c2ccccc2)ncc1C(=O)N1CCC(N2CCC(O)CC2)CC1 | -5 | 0.79
c1ccc(NCCc2nc3ccccc3[nH]2)nc1 | 4 | -0.53
CCc1nn(C)c(Cl)c1CN(C)CCN1CCCCC1=O | 3 | -0.48
Cc1ccccc1N1CCN(C(=O)CCN2C(=O)c3ccccc3C2=O)CC1 | -12 | 2.19
Cc1ncsc1C(=O)NCCN[C@@H](C)c1cccc(C#N)c1 | 13 | -2.28
O=C(Nc1c2c(nn1-c1cccc(Cl)c1)CS(=O)(=O)C2)c1cccc2ccccc12 | -12 | 2.1
